Screen size: about 330,000 compounds; about 300 (0.091%) were called active. About 4% were inconclusive and are not listed. The call rests on the fitted dose curve; in most records, active means well fitted inhibition curve with a large enough effect; inconclusive means small, poorly fitted or top-dose-only effect, or effect the other way, or another doubt; inactive means no such curve, though single readings can be large or run the other way. This is a selection; strong and weak results do not stand in their true shares.
The compounds below were run against Lysosomal acid glucosylceramidase (Homo sapiens) (UniProt P04062) (assay: qHTS Assay for Inhibitors and Activators of N370S glucocerebrosidase as a Potential Chaperone Treatment of Gaucher Disease). Conditions: N370S GC spleen homogenate, 4MU-glucoside fluorescence; series mostly up to 59.4 µM; activity change, negative = inhibition: at the top concentration.
Potency means the concentration at half of the fitted maximal effect.
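Wherever activity change, negative = inhibition is given: 0% = full enzyme activity and -100% = no enzyme basal.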

SMILES	Potency	activity change, negative = inhibition
CC(C)(C)C(=O)OCCNc1nc(-c2ccccc2)nc2ccccc12	active: 0.891 µM	
C#CCOCCOCCOCCNc1nc(N2CCN(C(=O)CCCCCCCCCCNC(=O)Cn3cc(C[C@@H](C)O)nn3)CC2)nc(N2CCN(C(=O)CCCCCCCCCCNC(=O)[C@H](CCCCN)n3cc(C[C@@H](C)CC)nn3)CC2)n1	active: 22.4 µM	
COc1cccc(-c2nccc(NCc3cccs3)n2)c1	active: 3.98 µM	
O=C(Nc1ccccc1)C1=C[C@@H](c2coc3ccccc3c2=O)C[C@@H](OCc2ccc(CO)cc2)O1		inactive: 11.5%
COc1cccc2c1[C@@H]1CN(CCCCn3c(=O)[nH]c4c(sc5ncc(-c6ccccc6)nc54)c3=O)C[C@@H]1CO2		inactive: -9.93%
O=C(NC1CC1)C1=C[C@H](C2CCCCC2)C[C@H](OCc2ccc(CO)cc2)O1		inactive: 10.7%
NC(=NCc1ccccc1)NC(=O)c1nc(Cl)c(N)nc1N	inactive	
O=C(OC[C@H]1O[C@@H](OC(=O)c2cc(O)c(O)c(OC(=O)c3cc(O)c(O)c(O)c3)c2)[C@H](OC(=O)c2cc(O)c(O)c(OC(=O)c3cc(O)c(O)c(O)c3)c2)[C@@H](OC(=O)c2cc(O)c(O)c(OC(=O)c3cc(O)c(O)c(O)c3)c2)[C@@H]1OC(=O)c1cc(O)c(O)c(OC(=O)c2cc(O)c(O)c(O)c2)c1)c1cc(O)c(O)c(OC(=O)c2cc(O)c(O)c(O)c2)c1		inactive: -9.94%
COc1cc(C(CC(=O)N2CCN(c3ccccc3)CC2)c2c(OC)cc(OC)c3ccc(=O)oc23)cc(OC)c1OC (configuration not stated)		inactive: 3.67%
COC(=O)[C@H](Cc1ccccc1)NC(=O)O[C@H]1C(=O)c2cc(OC)ccc2O[C@@H]1c1ccc(OC)c(Br)c1	inactive	
CCOc1ccc(N(CC(=O)Nc2ccc(C)c(C)c2)S(=O)(=O)c2c(C)[nH]c(=O)[nH]c2=O)cc1	active: 7.08 µM	
O=C(O)c1cc(-c2ccco2)nc2ccccc12		inactive: 17.3%
COc1cc(C2Oc3cc(C4Oc5cc(O)cc(O)c5C(=O)C4O)ccc3OC2CO)ccc1O (configuration not stated)		inactive: -15.4%
Oc1cccc(Nc2nc(-c3ccccc3)nc3ccccc23)c1	active: 2.82 µM	
CCCC[C@@H]1C[C@H]1[C@@H](NC(=O)c1ccco1)c1ccc(Cl)cc1		inactive: 2.44%
O=C(C1=C[C@H](c2csc3ccccc23)C[C@H](OCc2ccc(CO)cc2)O1)N1CCN(Cc2ccc3c(c2)OCO3)CC1		inactive: -15.5%
CCOc1ccccc1CNc1ccc(O)cc1	active: 5.62 µM	
NCCCC[C@H]1NC(=O)[C@H](CCC(=O)O)NC(=O)c2cc([N+](=O)[O-])cc(I)c2OCC[C@@H](C(N)=O)NC1=O		inactive: 6.19%
Cc1ccc(NC(=O)OCCN2CCN(Cc3ccccc3)CCC2=O)cc1C		inactive: -11.2%
CCOc1ccc(N(CC(=O)Nc2c(C)cccc2C)S(=O)(=O)c2c(C)[nH]c(=O)[nH]c2=O)cc1	active: 4.47 µM	
COc1cc(OC)c2c(-c3ccccc3)cc(=O)oc2c1C(CCN1CCCCC1)c1ccc2c(c1)OCO2 (configuration not stated)		inactive: -25.5%

SMILES	Potency	activity change, negative = inhibition
CCCCCCCCCCOC(=O)Cn1c(COc2ccc(OC)cc2)[n+](C)c2ccccc21		inactive: -12.6%
COc1cc2nc(N(C)CCCNC(=O)C3CCCO3)nc(N)c2cc1OC (configuration not stated)		inactive: 29.8%
O=c1c(OC2OC(CO)C(O)C(O)C2O)c(-c2ccc(O)c(O)c2)oc2cc(O)cc(O)c12 (configuration not stated)		inactive: -12.7%
O=C(NCCCCc1ccccc1)C12CN(Cc3ccccc3)CC1C(c1ccc([N+](=O)[O-])cc1)=NO2 (configuration not stated)	active: 10 µM	
CC(=O)n1cc([C@H]2C=C(C(=O)N3CCN(Cc4ccc5c(c4)OCO5)CC3)O[C@@H](OCc3ccc(CO)cc3)C2)c2ccccc21		inactive: -4.17%
COc1ccc(C(CC(=O)N2CCCC2)c2c(OC)cc(OC)c3ccc(=O)oc23)cc1 (configuration not stated)		inactive: 18.3%
C[C@H](NC(=O)c1nc[nH]c1C(=O)N[C@@H](CCCCNC(=O)OC(C)(C)C)C(=O)OC(C)(C)C)c1ccccc1		inactive: 23.4%
CC(=O)Oc1ccccc1C(=O)O	inactive	
CCN(CC)c1ccc(/C=C2\SC(=O)N(C(C)C)C2=O)o1		inactive: -26.6%
CCCCCCCCCCCCCCC[C@H](O)[C@@H](N)CO	inactive	
COc1ccccc1CNc1nc(-c2ccc3c(c2)OCO3)nc2ccccc12	active: 15.8 µM	
C(C#CCCCCCCCCC[n+]1ccccc1)#CCCCCCCCCC[n+]1ccccc1	active: 11.2 µM	
C1COC(NC(C2CC2)C2CC2)=N1	inactive	
COC(=O)C1C(O)CCC2CN3CCc4c([nH]c5ccccc45)C3CC21 (configuration not stated)		inactive: 13.3%
OCCN1CCN(CC/C=C2\c3ccccc3Sc3ccc(C(F)(F)F)cc32)CC1		inactive: 5.12% [at 21.6 µM]
CC1=NN(c2ccccc2)C(=O)C1	inactive	
COC1/C=C/OC2(C)Oc3c(C)c(O)c4c(O)c(c(/C=N/N5CCN(C)CC5)c(O)c4c3C2=O)NC(=O)/C(C)=C/C=C/C(C)C(O)C(C)C(O)C(C)C(OC(C)=O)C1C (configuration not stated)		inactive: -17.6%
COC(=O)C1=C(C)N(Cc2ccco2)C(=O)N[C@H]1c1cccc(C(F)(F)F)c1	inactive	
N#C/C(=C\c1ccc(N2CCOCC2)o1)C(=O)NC1CCCCC1		inactive: -11.9%
CN(C)c1ccc(N=C/C=C2/N(C)c3ccccc3C2(C)C)cc1		inactive: -21.3%
CCCC1OC2CC3C4CCC5=CC(=O)C=CC5(C)C4C(O)CC3(C)[C@]2(C(=O)CO)O1 (some centres not stated)		inactive: -5.86%
